{"source": "the supplement of paper PMC8728848", "binders": {"B1": {"name": "PfulAvr4 2 (Pseudocercospora fuligena) (protein)", "chain": "HHHHHHDYKDDDDKAKPIKPFACPPKDFTTTKCQGPVDCLYANPLSCLGYIQCVCDDDACSTATPYAKSCPTGLAWVEKLKRCDGIKKSACPKKMYEGS"}}, "experiment_in_all_cases": "glycan array binding signal (z-score within array); higher = stronger binding", "conditions_in_all_cases": "glycan notation: IUPAC condensed, linker removed", "key": {"Fuc(a1-3)GlcNAc": {"molecular_target": "Fuc(a1-3)GlcNAc", "in_short": "(§1)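 Glycan array binding is given as a within-array Z-score, which can be read as non-binding when negative. The arrays, 3228 of them, came from the Consortium for Functional Glycomics database and were retained only where the protein sequence was available. Z-scores were averaged across arrays of the same protein sequence at different concentrations or buffers and across linkers.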"}, "[1]": {"molecular_target": "Fuc(a1-3)[Gal(b1-4)]Glc6S", "in_short": "as §1"}, "[2]": {"molecular_target": "Fuc(a1-3)[Gal(b1-4)]GlcNAc", "in_short": "as §1"}, "[3]": {"molecular_target": "Fuc(a1-3)[Gal(b1-4)]GlcNAc(b1-2)Man", "in_short": "as §1"}, "[4]": {"molecular_target": "Fuc(a1-3)[Gal(b1-4)]GlcNAc(b1-2)Man(a1-3)[Fuc(a1-3)[Gal(b1-4)]GlcNAc(b1-2)Man(a1-6)]Man(b1-4)GlcNAc(b1-4)GlcNAc", "in_short": "as §1"}, "[5]": {"molecular_target": "Fuc(a1-3)[Gal(b1-4)]GlcNAc(b1-2)Man(a1-3)[Fuc(a1-3)[Gal(b1-4)]GlcNAc(b1-2)Man(a1-6)]Man(b1-4)GlcNAc(b1-4)[Fuc(a1-6)]GlcNAc", "in_short": "as §1"}, "[6]": {"molecular_target": "Fuc(a1-3)[Gal(b1-4)]GlcNAc(b1-3)Gal(b1-3)[Fuc(a1-4)]GlcNAc", "in_short": "as §1"}, "[7]": {"molecular_target": "Fuc(a1-3)[Gal(b1-4)]GlcNAc(b1-3)Gal(b1-4)[Fuc(a1-3)]GlcNAc", "in_short": "as §1"}, "[8]": {"molecular_target": "Fuc(a1-3)[Gal(b1-4)]GlcNAc(b1-3)Gal(b1-4)[Fuc(a1-3)]GlcNAc(b1-3)Gal(b1-4)[Fuc(a1-3)]GlcNAc", "in_short": "as §1"}, "[9]": {"molecular_target": "Fuc(a1-3)[Gal(b1-4)]GlcNAc(b1-3)GalNAc", "in_short": "as §1"}, "[10]": {"molecular_target": "Fuc(a1-3)[Gal(b1-4)]GlcNAc(b1-6)GalNAc", "in_short": "as §1"}, "[11]": {"molecular_target": "Fuc(a1-3)[Gal(b1-4)]GlcNAc(b1-6)[Gal(b1-3)GlcNAc(b1-3)]Gal(b1-4)Glc", "in_short": "as §1"}, "[12]": {"molecular_target": "Fuc(a1-3)[Gal(b1-4)]GlcNAc6S", "in_short": "as §1"}, "[13]": {"molecular_target": "Fuc(a1-3)[Gal3S(b1-4)]Glc", "in_short": "as §1"}, "[14]": {"molecular_target": "Fuc(a1-3)[Gal3S(b1-4)]GlcNAc", "in_short": "as §1"}, "[15]": {"molecular_target": "Fuc(a1-3)[Gal3S(b1-4)]GlcNAc6S", "in_short": "as §1"}, "[16]": {"molecular_target": "Fuc(a1-3)[GalNAc(b1-4)]GlcNAc", "in_short": "as §1"}, "[17]": {"molecular_target": "Fuc(a1-3)[GalNAc(b1-4)]GlcNAc6S", "in_short": "as §1"}, "Fuc(a1-4)GlcNAc": {"molecular_target": "Fuc(a1-4)GlcNAc", "in_short": "as §1"}, "Fuc(b1-3)GlcNAc": {"molecular_target": "Fuc(b1-3)GlcNAc", "in_short": "as §1"}, "Gal(a1-2)Gal": {"molecular_target": "Gal(a1-2)Gal", "in_short": "as §1"}, "Gal(a1-3)Gal": {"molecular_target": "Gal(a1-3)Gal", "in_short": "as §1"}, "Gal(a1-3)Gal(b1-3)GlcNAc": {"molecular_target": "Gal(a1-3)Gal(b1-3)GlcNAc", "in_short": "as §1"}, "[18]": {"molecular_target": "Gal(a1-3)Gal(b1-3)GlcNAc(b1-2)Man", "in_short": "as §1"}, "[19]": {"molecular_target": "Gal(a1-3)Gal(b1-3)GlcNAc(b1-2)Man(a1-3)[Gal(a1-3)Gal(b1-3)GlcNAc(b1-2)Man(a1-6)]Man(b1-4)GlcNAc(b1-4)GlcNAc", "in_short": "as §1"}, "[20]": {"molecular_target": "Gal(a1-3)Gal(b1-3)GlcNAc(b1-3)GalNAc", "in_short": "as §1"}, "[21]": {"molecular_target": "Gal(a1-3)Gal(b1-3)GlcNAc(b1-6)GalNAc", "in_short": "as §1"}, "[22]": {"molecular_target": "Gal(a1-3)Gal(b1-3)[Fuc(a1-4)]GlcNAc(b1-2)Man(a1-3)[Gal(a1-3)Gal(b1-3)[Fuc(a1-4)]GlcNAc(b1-2)Man(a1-6)]Man(b1-4)GlcNAc(b1-4)GlcNAc", "in_short": "as §1"}, "Gal(a1-3)Gal(b1-4)Glc": {"molecular_target": "Gal(a1-3)Gal(b1-4)Glc", "in_short": "as §1"}, "Gal(a1-3)Gal(b1-4)GlcNAc": {"molecular_target": "Gal(a1-3)Gal(b1-4)GlcNAc", "in_short": "as §1"}, "[23]": {"molecular_target": "Gal(a1-3)Gal(b1-4)GlcNAc(b1-2)Man", "in_short": "as §1"}, "[24]": {"molecular_target": "Gal(a1-3)Gal(b1-4)GlcNAc(b1-2)Man(a1-3)[Gal(a1-3)Gal(b1-4)GlcNAc(b1-2)Man(a1-6)]Man(b1-4)GlcNAc(b1-4)GlcNAc", "in_short": "as §1"}, "[25]": {"molecular_target": "Gal(a1-3)Gal(b1-4)GlcNAc(b1-3)GalNAc", "in_short": "as §1"}, "[26]": {"molecular_target": "Gal(a1-3)Gal(b1-4)GlcNAc(b1-6)GalNAc", "in_short": "as §1"}, "[27]": {"molecular_target": "Gal(a1-3)Gal(b1-4)[Fuc(a1-3)]GlcNAc", "in_short": "as §1"}, "[28]": {"molecular_target": "Gal(a1-3)Gal(b1-4)[Fuc(a1-3)]GlcNAc(b1-2)Man(a1-3)[Gal(a1-3)Gal(b1-4)[Fuc(a1-3)]GlcNAc(b1-2)Man(a1-6)]Man(b1-4)GlcNAc(b1-4)GlcNAc", "in_short": "as §1"}, "Gal(a1-3)GalNAc": {"molecular_target": "Gal(a1-3)GalNAc", "in_short": "as §1"}, "[29]": {"molecular_target": "Gal(a1-3)[Gal(a1-4)]Gal(b1-4)GlcNAc", "in_short": "as §1"}, "[30]": {"molecular_target": "Gal(a1-4)Gal(b1-3)GlcNAc(b1-2)Man(a1-3)[Gal(a1-4)Gal(b1-3)GlcNAc(b1-2)Man(a1-6)]Man(b1-4)GlcNAc(b1-4)GlcNAc", "in_short": "as §1"}, "Gal(a1-4)Gal(b1-4)Glc": {"molecular_target": "Gal(a1-4)Gal(b1-4)Glc", "in_short": "as §1"}, "Gal(a1-4)Gal(b1-4)GlcNAc": {"molecular_target": "Gal(a1-4)Gal(b1-4)GlcNAc", "in_short": "as §1"}, "[31]": {"molecular_target": "Gal(a1-4)Gal(b1-4)GlcNAc(b1-2)Man(a1-3)[Gal(a1-4)Gal(b1-4)GlcNAc(b1-2)Man(a1-6)]Man(b1-4)GlcNAc(b1-4)GlcNAc", "in_short": "as §1"}, "[32]": {"molecular_target": "Gal(a1-4)Gal(b1-4)GlcNAc(b1-3)Gal(b1-4)Glc", "in_short": "as §1"}, "Gal(a1-4)GlcNAc": {"molecular_target": "Gal(a1-4)GlcNAc", "in_short": "as §1"}, "Gal(a1-6)Glc": {"molecular_target": "Gal(a1-6)Glc", "in_short": "as §1"}}, "note": "This is one part of the list."}
{"binder": "B1", "values": [{"measurement": "glycan array binding signal (z-score)", "setting": "Fuc(a1-3)GlcNAc", "value": -0.168}, {"measurement": "glycan array binding signal (z-score)", "setting": "[1]", "value": 0.132}, {"measurement": "glycan array binding signal (z-score)", "setting": "[2]", "value": -0.175}, {"measurement": "glycan array binding signal (z-score)", "setting": "[3]", "value": -0.157}, {"measurement": "glycan array binding signal (z-score)", "setting": "[4]", "value": -0.253}, {"measurement": "glycan array binding signal (z-score)", "setting": "[5]", "value": -0.103}, {"measurement": "glycan array binding signal (z-score)", "setting": "[6]", "value": -0.299}, {"measurement": "glycan array binding signal (z-score)", "setting": "[7]", "value": 0.113}, {"measurement": "glycan array binding signal (z-score)", "setting": "[8]", "value": -0.353}, {"measurement": "glycan array binding signal (z-score)", "setting": "[9]", "value": 0.568}, {"measurement": "glycan array binding signal (z-score)", "setting": "[10]", "value": 0.142}, {"measurement": "glycan array binding signal (z-score)", "setting": "[11]", "value": -0.046}, {"measurement": "glycan array binding signal (z-score)", "setting": "[12]", "value": 0.605}, {"measurement": "glycan array binding signal (z-score)", "setting": "[13]", "value": -0.263}, {"measurement": "glycan array binding signal (z-score)", "setting": "[14]", "value": -0.142}, {"measurement": "glycan array binding signal (z-score)", "setting": "[15]", "value": -0.137}, {"measurement": "glycan array binding signal (z-score)", "setting": "[16]", "value": 0.171}, {"measurement": "glycan array binding signal (z-score)", "setting": "[17]", "value": -0.332}, {"measurement": "glycan array binding signal (z-score)", "setting": "Fuc(a1-4)GlcNAc", "value": -0.158}, {"measurement": "glycan array binding signal (z-score)", "setting": "Fuc(b1-3)GlcNAc", "value": -0.111}, {"measurement": "glycan array binding signal (z-score)", "setting": "Gal(a1-2)Gal", "value": 0.11}, {"measurement": "glycan array binding signal (z-score)", "setting": "Gal(a1-3)Gal", "value": -0.324}, {"measurement": "glycan array binding signal (z-score)", "setting": "Gal(a1-3)Gal(b1-3)GlcNAc", "value": -0.37}, {"measurement": "glycan array binding signal (z-score)", "setting": "[18]", "value": -0.323}, {"measurement": "glycan array binding signal (z-score)", "setting": "[19]", "value": 0.798}, {"measurement": "glycan array binding signal (z-score)", "setting": "[20]", "value": -0.14}, {"measurement": "glycan array binding signal (z-score)", "setting": "[21]", "value": -0.335}, {"measurement": "glycan array binding signal (z-score)", "setting": "[22]", "value": -0.043}, {"measurement": "glycan array binding signal (z-score)", "setting": "Gal(a1-3)Gal(b1-4)Glc", "value": -0.238}, {"measurement": "glycan array binding signal (z-score)", "setting": "Gal(a1-3)Gal(b1-4)GlcNAc", "value": -0.188}, {"measurement": "glycan array binding signal (z-score)", "setting": "[23]", "value": -0.019}, {"measurement": "glycan array binding signal (z-score)", "setting": "[24]", "value": -0.309}, {"measurement": "glycan array binding signal (z-score)", "setting": "[25]", "value": -0.236}, {"measurement": "glycan array binding signal (z-score)", "setting": "[26]", "value": -0.286}, {"measurement": "glycan array binding signal (z-score)", "setting": "[27]", "value": -0.306}, {"measurement": "glycan array binding signal (z-score)", "setting": "[28]", "value": -0.284}, {"measurement": "glycan array binding signal (z-score)", "setting": "Gal(a1-3)GalNAc", "value": -0.354}, {"measurement": "glycan array binding signal (z-score)", "setting": "[29]", "value": -0.334}, {"measurement": "glycan array binding signal (z-score)", "setting": "[30]", "value": 0.37}, {"measurement": "glycan array binding signal (z-score)", "setting": "Gal(a1-4)Gal(b1-4)Glc", "value": 0.873}, {"measurement": "glycan array binding signal (z-score)", "setting": "Gal(a1-4)Gal(b1-4)GlcNAc", "value": -0.193}, {"measurement": "glycan array binding signal (z-score)", "setting": "[31]", "value": 1.43}, {"measurement": "glycan array binding signal (z-score)", "setting": "[32]", "value": -0.267}, {"measurement": "glycan array binding signal (z-score)", "setting": "Gal(a1-4)GlcNAc", "value": -0.216}, {"measurement": "glycan array binding signal (z-score)", "setting": "Gal(a1-6)Glc", "value": -0.344}]}
